Here are results for 13 compounds from the supplement of paper PMC12350171.

Synthetic gut communities (20 or 21 species) grown anaerobically with drug for 24 h at the dose given, then challenged with the named pathogen. Pathogen growth (luminescence, or colony counts for V. cholerae) or community OD578 as fold of untreated communities, mean of three; above 1 = more growth. No active / inactive call.

For assay [1], the system named is Salmonella enterica Typhimurium (community: Com21 (Com20 + E. coli ED1a)). Description: pathogen growth (luminescence or CFU) in drug-pretreated community relative to untreated community (fold of untreated control); higher = more pathogen expansion.
Assay [2] has as its system Salmonella enterica Typhimurium in Com20. Description: S. Typhimurium luminescence in drug-pretreated Com20 relative to untreated Com20 (fold of untreated control); higher = more pathogen expansion.
Setting [3] is: drug pretreatment concentration 5 µM.
[4] abbreviates: drug pretreatment concentration 10 µM.
Where [5] appears, read: drug pretreatment concentration 20 µM.
Where [6] appears, read: drug pretreatment concentration 40 µM.
[7] abbreviates: drug pretreatment concentration 80 µM.
[8] abbreviates: drug pretreatment concentration 160 µM.
Where [9] appears, read: drug pretreatment concentration 2.5 µM.

For `C[C@]12CCC3=C4CCC(=O)C=C4CC[C@H]3[C@@H]1CC[C@@]2(O)CC#N` [Dienogest], the pathogen growth in assay [1] (setting [3]) stood at 0.993; in assay [1] (setting [4]), 0.943; in assay [1] (setting [5]), 0.942; in assay [1] (setting [6]), 0.946; in assay [1] (setting [7]), 1.21. The “S. Typhimurium luminescence” value in assay [2] (setting [3]) worked out at 1.19; in assay [2] (setting [4]) it was 1.1; in assay [2] (setting [5]), 1.04; in assay [2] (setting [6]), 1.08; in assay [2] (setting [7]), 1.34.
As to `C#C[C@]1(O)CC[C@H]2[C@@H]3CCc4cc(O)ccc4[C@H]3CC[C@@]21C` [Ethinylestradiol], the pathogen growth stood at 1.11 in assay [1] (setting [3]); 1.05 in assay [1] (setting [4]); 1.11 in assay [1] (setting [5]); 1.07 in assay [1] (setting [6]); 1.52 in assay [1] (setting [7]). Also, the “S. Typhimurium luminescence” value in assay [2] (setting [3]) worked out at 1.21; in assay [2] (setting [4]) it was 1.08; in assay [2] (setting [5]), 0.922; in assay [2] (setting [6]), 1.05; in assay [2] (setting [7]), 2.2.
Turning to `CCN(CC)C(C)CN1c2ccccc2Sc2ccccc21` (stereo not given) [Ethopropazine], the pathogen growth in assay [1] (setting [4]) is 1.57; in assay [1] (setting [5]) it was 1.41; in assay [1] (setting [6]), 1.09; in assay [1] (setting [7]), 1.41; in assay [1] (setting [8]), 1.82. Further, the “S. Typhimurium luminescence” value was found to be 1.53 in assay [2] (setting [4]); 1.18 in assay [2] (setting [5]); 1.48 in assay [2] (setting [6]); 1.24 in assay [2] (setting [7]); 1.86 in assay [2] (setting [8]).
For `OC(Cn1cncn1)(Cn1cncn1)c1ccc(F)cc1F` [Fluconazole], the pathogen growth stood at 1.23 in assay [1] (setting [4]); 1.3 in assay [1] (setting [5]); 0.808 in assay [1] (setting [6]); 1 in assay [1] (setting [7]); 1.36 in assay [1] (setting [8]). The “S. Typhimurium luminescence” value in assay [2] (setting [4]) came to 0.915; in assay [2] (setting [5]), 0.979; in assay [2] (setting [6]) it was 0.767; in assay [2] (setting [7]), 0.855; in assay [2] (setting [8]), 0.937.
As to `CC(=O)N1CCN(c2ccc(OCC3COC(Cn4ccnc4)(c4ccc(Cl)cc4Cl)O3)cc2)CC1` (stereo not given) [Ketoconazole], the pathogen growth in assay [1] (setting [4]) is 1.33; in assay [1] (setting [5]), 0.926; in assay [1] (setting [6]), 0.706; in assay [1] (setting [7]), 1.23; in assay [1] (setting [8]), 2.48. Also, the “S. Typhimurium luminescence” value in assay [2] (setting [4]) was 1.46; in assay [2] (setting [5]) it was 0.934; in assay [2] (setting [6]), 0.96; in assay [2] (setting [7]) it was 0.863; in assay [2] (setting [8]), 1.93.
In the case of `CCOC(=O)C1=C(C)NC(C)=C(C(=O)OCC)C1c1ccccc1/C=C/C(=O)OC(C)(C)C` [Lacidipine], the pathogen growth in assay [1] (setting [9]) was found to be 1.35; in assay [1] (setting [3]), 0.954; in assay [1] (setting [4]), 0.77; in assay [1] (setting [5]) it was 0.813; in assay [1] (setting [6]), 0.541. The “S. Typhimurium luminescence” value is 1.17 in assay [2] (setting [9]); 0.776 in assay [2] (setting [3]); 0.599 in assay [2] (setting [4]); 0.515 in assay [2] (setting [5]); 0.757 in assay [2] (setting [6]).
As for `Cc1c(OCC(F)(F)F)ccnc1C[S+]([O-])c1nc2ccccc2[nH]1` (stereo not given) [Lansoprazole], the pathogen growth was 1.34 in assay [1] (setting [4]); 1.02 in assay [1] (setting [5]); 0.855 in assay [1] (setting [6]); 0.756 in assay [1] (setting [7]); 1.1 in assay [1] (setting [8]). Further, the “S. Typhimurium luminescence” value in assay [2] (setting [4]) was found to be 1.59; in assay [2] (setting [5]), 1.29; in assay [2] (setting [6]), 1.07; in assay [2] (setting [7]), 1.35; in assay [2] (setting [8]) it was 2.22.
On to `CN1CCN(C2=Nc3ccccc3Oc3ccc(Cl)cc32)CC1` [Loxapine], for which the pathogen growth in assay [1] (setting [4]) worked out at 1.47; in assay [1] (setting [5]) it was 1.24; in assay [1] (setting [6]), 1.1; in assay [1] (setting [7]), 1.3; in assay [1] (setting [8]), 2.04. Moreover, the “S. Typhimurium luminescence” value in assay [2] (setting [4]) is 2.21; in assay [2] (setting [5]), 1.33; in assay [2] (setting [6]), 1.42; in assay [2] (setting [7]) it was 1.69; in assay [2] (setting [8]), 2.46.
For `Cc1c(N(C)CS(=O)(=O)O)c(=O)n(-c2ccccc2)n1C` [Metamizole], the pathogen growth in assay [1] (setting [4]) was 1.16; in assay [1] (setting [5]), 1.21; in assay [1] (setting [6]) it was 1.09; in assay [1] (setting [7]) it was 1.08; in assay [1] (setting [8]), 1.16. Moreover, the “S. Typhimurium luminescence” value stood at 1.1 in assay [2] (setting [4]); 0.914 in assay [2] (setting [5]); 0.884 in assay [2] (setting [6]); 1.02 in assay [2] (setting [7]); 1.11 in assay [2] (setting [8]).
Consider `CN(C)C(=N)NC(=N)N` [Metformin], for which the pathogen growth in assay [1] (setting [4]) worked out at 1.12; in assay [1] (setting [5]), 0.933; in assay [1] (setting [6]) it was 0.786; in assay [1] (setting [7]), 0.862; in assay [1] (setting [8]) it was 1.25. The “S. Typhimurium luminescence” value in assay [2] (setting [4]) was found to be 1.68; in assay [2] (setting [5]) it was 1.12; in assay [2] (setting [6]) it was 0.858; in assay [2] (setting [7]) it was 0.98; in assay [2] (setting [8]) it was 1.13.
With `CN(Cc1cnc2nc(N)nc(N)c2n1)c1ccc(C(=O)N[C@@H](CCC(=O)O)C(=O)O)cc1` [Methotrexate], the pathogen growth in assay [1] (setting [9]) amounted to 1.37; in assay [1] (setting [3]) it was 1.51; in assay [1] (setting [4]), 1.21; in assay [1] (setting [5]) it was 1.31; in assay [1] (setting [6]) it was 1.85. Further, the “S. Typhimurium luminescence” value turned out to be 1.87 in assay [2] (setting [9]); 1.4 in assay [2] (setting [3]); 2.06 in assay [2] (setting [4]); 2.98 in assay [2] (setting [5]); 4.13 in assay [2] (setting [6]).
As for `O=C(Nc1ccc([N+](=O)[O-])cc1Cl)c1cc(Cl)ccc1O` [Niclosamide], the pathogen growth in assay [1] (setting [4]) was 0.921; in assay [1] (setting [5]) it was 0.838; in assay [1] (setting [6]) it was 0.692; in assay [1] (setting [7]), 1.27; in assay [1] (setting [8]), 1.16. For the same compound, the “S. Typhimurium luminescence” value in assay [2] (setting [4]) was determined as 2.05; in assay [2] (setting [5]), 1.61; in assay [2] (setting [6]), 1.67; in assay [2] (setting [7]), 1.68; in assay [2] (setting [8]), 2.53.
On to `CC(CN1c2ccccc2Sc2ccccc21)N(C)C` (stereo not given) [Promethazine], for which the pathogen growth stood at 1.07 in assay [1] (setting [4]); 1.57 in assay [1] (setting [5]); 1.03 in assay [1] (setting [6]); 1.61 in assay [1] (setting [7]); 2.48 in assay [1] (setting [8]). Further, the “S. Typhimurium luminescence” value turned out to be 1.47 in assay [2] (setting [4]); 1.14 in assay [2] (setting [5]); 1.01 in assay [2] (setting [6]); 1.08 in assay [2] (setting [7]); 1.3 in assay [2] (setting [8]).
